Test results reported in patent publication US20250057968A1, “ANTI-DLL3 ANTIBODY AND PHARMACEUTICAL USE THEREOF, AND ANTIBODY-DRUG CONJUGATE CONTAINING ANTI-DLL3 ANTIBODY” (Jiangsu Hengrui Pharmaceuticals Co., Ltd., priority 2021, published 2025).

T1: human DLL3 (Homo sapiens, UniProt Q9NYJ7)
T1 construct: purchased ACRO DLL3-H52H4
T1 sequence (Q9NYJ7 27-492 limits assumed): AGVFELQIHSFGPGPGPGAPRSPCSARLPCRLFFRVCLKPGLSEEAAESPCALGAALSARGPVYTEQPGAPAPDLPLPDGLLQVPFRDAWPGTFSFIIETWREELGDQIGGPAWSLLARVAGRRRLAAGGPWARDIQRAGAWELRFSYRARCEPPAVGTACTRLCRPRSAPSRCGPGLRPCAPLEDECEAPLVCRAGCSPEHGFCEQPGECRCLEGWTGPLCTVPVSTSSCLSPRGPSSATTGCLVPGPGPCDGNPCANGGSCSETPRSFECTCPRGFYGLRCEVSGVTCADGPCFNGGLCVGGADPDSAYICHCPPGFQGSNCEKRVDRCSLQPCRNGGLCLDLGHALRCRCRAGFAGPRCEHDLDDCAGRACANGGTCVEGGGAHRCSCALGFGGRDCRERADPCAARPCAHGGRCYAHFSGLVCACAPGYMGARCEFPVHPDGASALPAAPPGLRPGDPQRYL

B1: hAb100L2H1: humanized antibody of mAb100: hAb100VH1 (SEQ ID NO: 50) + hAb100VL2 (SEQ ID NO: 56), constant regions SEQ ID NO: 28/29 (antibody)
heavy: EVQLVESGGGLVKPGGSLRLSCAASGFTFSDSGMHWIRQAPGKGLEWVSYISSGSSTIHYADTVKGRFTISRDNAKNSLYLQMNSLRAEDTAVYYCASPLYYYGRSYNAVAYWGQGTTVTVSS[human IgG1 constant region not written out]
light: DIQMTQSPSSLSASVGDRVTITCHASQNINVWLSWYQQKPGKIPKLLIYKASDLHTGVPSRFSGSGSGTDFTLTISSLQPEDVATYYCQQGQSYPLTFGGGTKVEIKRTVAAPSVFIFPPSDEQLKSGTASVVCLLNNFYPREAKVQWKVDNALQSGNSQESVTEQDSKDSTYSLSSTLTLSKADYEKHKVYACEVTHQGLSSPVTKSFNRGEC
B2: hAb100L2H2: humanized antibody of mAb100: hAb100VH2 (SEQ ID NO: 51) + hAb100VL2 (SEQ ID NO: 56), constant regions SEQ ID NO: 28/29 (antibody)
heavy: B1 heavy with S49A
light: B1 light
B3: hAb100L2H3: humanized antibody of mAb100: hAb100VH3 (SEQ ID NO: 52) + hAb100VL2 (SEQ ID NO: 56), constant regions SEQ ID NO: 28/29 (antibody)
heavy: B1 heavy with S49A, Y102H
light: B1 light
B4: hAb100L2H4: humanized antibody of mAb100: hAb100VH4 (SEQ ID NO: 53) + hAb100VL2 (SEQ ID NO: 56), constant regions SEQ ID NO: 28/29 (antibody)
heavy: B1 heavy with S49A, A109G
light: B1 light
B5: M100CHI: anti-DLL3 chimeric antibody: mAb100 variable regions, human IgG1 (SEQ ID NO: 28) and κ (SEQ ID NO: 29) constant regions (antibody)
heavy: B1 heavy with R19K, G42E, S49A, S78T, Y80F, N84T, A88S, V93M, T118S
light: B1 light with T5N, V15L, R18T, V19I, K42N, D70G, V83I, V104L
B6: hAb100L1H2: humanized antibody of mAb100: hAb100VH2 (SEQ ID NO: 51) + hAb100VL1 (SEQ ID NO: 55), constant regions SEQ ID NO: 28/29 (antibody)
heavy: B1 heavy with S49A
light: B1 light with I43V
B7: hAb100L1H3: humanized antibody of mAb100: hAb100VH3 (SEQ ID NO: 52) + hAb100VL1 (SEQ ID NO: 55), constant regions SEQ ID NO: 28/29 (antibody)
heavy: B1 heavy with S49A, Y102H
light: B1 light with I43V
B8: hAb100L1H4: humanized antibody of mAb100: hAb100VH4 (SEQ ID NO: 53) + hAb100VL1 (SEQ ID NO: 55), constant regions SEQ ID NO: 28/29 (antibody)
heavy: B1 heavy with S49A, A109G
light: B1 light with I43V
B9: hAb6L2H2: humanized antibody of mAb6: hAb6VH2 (SEQ ID NO: 33) + hAb6VL2 (SEQ ID NO: 46), constant regions SEQ ID NO: 28/29 (antibody)
heavy: EVQLVQSGAEVKKPGASVKVSCKASGYTFTDYYMNWVRQAPGQRLEWMGIINPYSGVTIYNHKFKGRVTLTVDKSANTAYMELSSLRSEDTAVYYCARQDSLLDYAMDYWGQGTTVTVSS[human IgG1 constant region not written out]
light: DIQMTQSPSSLSASVGDRVTITCHASQGISGNMGWLQQKPGKAPKGLIYHGANLEDGVPSRFSGSGSGADYTLTISSLQPEDFATYYCVQYAQFPYTFGGGTKVEIKRTVAAPSVFIFPPSDEQLKSGTASVVCLLNNFYPREAKVQWKVDNALQSGNSQESVTEQDSKDSTYSLSSTLTLSKADYEKHKVYACEVTHQGLSSPVTKSFNRGEC
B10: hAb6L2H3: humanized antibody of mAb6: hAb6VH3 (SEQ ID NO: 34) + hAb6VL2 (SEQ ID NO: 46), constant regions SEQ ID NO: 28/29 (antibody)
heavy: B9 heavy with M48I, V68A
light: B9 light
B11: hAb6L3H1: humanized antibody of mAb6: hAb6VH1 (SEQ ID NO: 32) + hAb6VL3 (SEQ ID NO: 47), constant regions SEQ ID NO: 28/29 (antibody)
heavy: B9 heavy with L70I, N77S
light: B9 light with A43S, P44F
B12: hAb6L2H5: humanized antibody of mAb6: hAb6VH5 (SEQ ID NO: 36) + hAb6VL2 (SEQ ID NO: 46), constant regions SEQ ID NO: 28/29 (antibody)
heavy: EVQLVQSGSELKKPGASVKVSCKASGYTFTDYYMNWVRQAPGQGLEWMGIINPYSGVTIYNHKFKGRFVLSVDKSVSTAYLQISSLKAEDTAVYYCARQDSLLDYAMDYWGQGTTVTVSS[human IgG1 constant region not written out]
light: B9 light
B13: hAb6L2H6: humanized antibody of mAb6: hAb6VH6 (SEQ ID NO: 37) + hAb6VL2 (SEQ ID NO: 46), constant regions SEQ ID NO: 28/29 (antibody)
heavy: B12 heavy with V76S, S77N
light: B9 light

biological target: T1, human DLL3; test: Biacore antibody affinity assay, human DLL3; format: binding
From the text: Test antibodies were affinity-captured with a Protein A biosensor chip (Cat. #29127556, Cytiva) for 18 seconds, and then the antigens human DLL3 (ACRO, DLL3-H52H4), cynomolgus monkey DLL3 (KACTUS, DLL-RM103), and mouse DLL3 (KACTUS, DLL-MM103) were allowed to flow over the surface of the chip for 180 seconds, followed by 600 seconds of dissociation. Reaction signals were detected in real time using a Biacore 8K (Cytiva) instrument to obtain association and dissociation curves. After the dissociation in each experimental cycle, the biosensor chip was washed and regenerated with a 10 mM glycine-hydrochloric acid solution (pH 1.5) (Cat. #BR-1003-54, Cytiva). A 1:1 model was fit to the data. The results are shown in Table 12-1, Table 12-2, and Table 12-3.

B1 and B2 are within 1.5-fold of each other in “ka” value: 572000 M⁻¹ s⁻¹ for the first, 848000 M⁻¹ s⁻¹ for the second.

Compared with B3, B4 is 1.6-fold higher in “ka” value: 404000 M⁻¹ s⁻¹ for the first, 652000 M⁻¹ s⁻¹ for the second.

B5 and B6 are within 1.5-fold of each other in “ka” value: 1.03e+06 M⁻¹ s⁻¹ for the first, 781000 M⁻¹ s⁻¹ for the second.

Compared with B7, B8 is 2.4-fold lower in “ka” value: 832000 M⁻¹ s⁻¹ for the first, 348000 M⁻¹ s⁻¹ for the second.

B9 and B10 are within 1.5-fold of each other in “ka” value: 704000 M⁻¹ s⁻¹ for the first, 695000 M⁻¹ s⁻¹ for the second.

B11 and B12 are within 1.5-fold of each other in “ka” value: 715000 M⁻¹ s⁻¹ for the first, 810000 M⁻¹ s⁻¹ for the second.

B13 was tested, and the “ka” value was 863000 M⁻¹ s⁻¹.

Going from B1 to B2, the “kd” value falls from 0.000629 s⁻¹ to 0.00037 s⁻¹ (1.7-fold).

First: B3
Second: B4
The “kd” value of the first is 2.4-fold lower: 0.000268 s⁻¹ for the first, 0.000655 s⁻¹ for the second.

B5 and B6 are within 1.5-fold of each other in “kd” value: 0.000546 s⁻¹ for the first, 0.000365 s⁻¹ for the second.

B7 and B8 are within 1.5-fold of each other in “kd” value: 0.000352 s⁻¹ for the first, 0.000254 s⁻¹ for the second.

B9 and B10 are within 1.5-fold of each other in “kd” value: 0.00116 s⁻¹ for the first, 0.00139 s⁻¹ for the second.

Going from B11 to B12, the “kd” value falls from 0.00144 s⁻¹ to 0.000784 s⁻¹ (1.8-fold).

B13 was tested, and the “kd” value was 0.000756 s⁻¹.

Where a chain is given by its changes, count along the chain named.
